From the supplement of paper PMC5499739
In all, about 16,000 sequences were measured (“Z-score”: median about -0.37, highest 2% from about 3.2 on). The list shows a part of the results.

What follows are sequences tested on RBM10 RRM1-ZnF (GST-tagged construct) (assay: RNAcompete 7-mer binding Z-score; higher = stronger binding preference).
How it was run: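 GST-tagged RBM10 constructs (20 pmol) and a designed pool of 241 399 RNAs up to 41 nt (1.5 nmol) were allowed to bind for 30 min at 4°C in 1 ml Hepes pH 7.8 buffer with glutathione Sepharose beads. After four 2-min washes at 4°C, bound RNA was identified by microarray hybridisation. Enrichment was scored per heptamer motif as a one-sided Z-score across the probes containing it.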

Sequence	RNAcompete 7-mer binding Z-score
ACCCUAA	-0.571
AUCAUAA	-0.587
UGUAUCA	-0.334
UGCUAUC	-0.61
CUCACGG	-0.464
GAUGCAU	-0.194
UAUAGUG	0.277
CAACGAA	-0.49
GAUUGCA	-0.00571
CAAUUAG	-0.035
ACUUGCU	-0.74
CUGAGGG	1.81
AUAGCGA	0.163
AGAGUAA	0.491
UUACUUU	-0.834
GUAAGCC	-0.178
CAUAAGU	-0.386
GUACCGU	-0.295
AGUAACU	-0.337
GAGAAGU	0.82
CAUACGA	-0.607
GCUAACG	-0.106
AGUCUCC	-0.733

Sequence	RNAcompete 7-mer binding Z-score
UAACAAU	-0.526
ACUGUAU	-0.493
UGGAAGU	1.79
GAGUCCU	-0.568
CGGAGGC	1.16
AGUAUUA	-0.272
CCUGCAG	-0.581
AUACCGU	-0.604
CGGCGUC	-0.337
UGCUCUC	-0.772
GCAAAUC	-0.532
GCCACGC	-0.253
CGGCCCA	-0.681
CCUUGGA	-0.311
UCCUCUU	-0.74
CACUACG	-0.366
GAGUUUA	-0.0902
GUGCAAG	0.826
CGCUACA	-0.519
CGCAGAC	-0.165
CCUCUUA	-0.85
GCUAAGA	-0.207
CGGAUAC	1.18

Sequence	RNAcompete 7-mer binding Z-score
CUCAUCC	-0.831
GGAUCAU	0.573
AGCCUCC	-0.74
GGAGAGU	1.8
CUCGUUC	-0.711
UCUUUAG	-0.763
CUGAAGG	1.22
UUCCGUA	-0.756
CACUUCA	-0.792
CCCAGGU	0.121
UUGCUAU	-0.535
CGGAAUA	0.553
AGCAGUA	-0.0122
AUACCCA	-0.737
UAUCCUU	-0.743
CAUUAAC	-0.746
CUACUAU	-0.587
AUCCAUC	-0.75
UGUGUCU	-0.353
CGAAGGG	2.43
CUGAAAA	-0.457
AUCACUU	-0.72
CCCGGGU	0.462

Sequence	RNAcompete 7-mer binding Z-score
UGUACUC	-0.633
UCGUGGU	0.433
GCGUGCU	-0.24
AGAUUCA	-0.509
AUGCCAG	-0.399
GUCUUCC	-0.571
ACGCUCU	-0.688
GAAUGAG	1.23
UACAGAC	-0.295
CAGUAUA	-0.366
GCCGUCU	-0.821
UGUUAGC	-0.548
AUUUUUA	-0.662
AGCUCAA	-0.626
CCGGUGU	0.144
GUUUCCG	-0.409
GCGCACC	-0.223
AUCGGAG	0.67
UUCGUCA	-0.646
CCGUAAU	-0.824
CGGAAAU	0.095
ACCGAAC	-0.649
ACUGUGU	-0.37

Sequence	RNAcompete 7-mer binding Z-score
GUAGGAG	3.43
AGACUGG	0.884
CCGACUU	-0.938
UCAGACG	-0.142
AGUAUCA	-0.311
GAAGACC	-0.171
CUGUUGC	-0.526
ACUGUGG	0.803
CUCCGUU	-0.792
AAAACCC	-0.824
UUAUCGC	-0.785
ACGUCUC	-0.746
AUCGGAU	0.309
UGACAUA	-0.37
GAGCUAC	-0.207
AGGCCGG	0.121
GCGGUCC	-0.243
AUUGGGU	2.9
CCGGGUC	0.527
AGGCCCA	-0.818
GUUUCUA	-0.633
UAGGUAG	2.35
AAUGACA	-0.233

Sequence	RNAcompete 7-mer binding Z-score
CAUAGUC	-0.617
CACUCGA	-0.578
AAAGUGC	-0.181
UCCCAUU	-0.938
AACCCGA	-0.85
UUGUUUU	-0.301
CAUUGAA	-0.282
CCGUGGA	0.228
AGUUUCG	-0.431
CCCUAGC	-0.548
CGAACCA	-0.574
UGGAUUC	-0.0414
AACAAGU	-0.256
AGGCAUU	-0.298
GGUAUUU	0.192
AGCUGCU	-0.477
UACCCGG	-0.301
GCCACCC	-0.425
GCUUCAC	-0.73
GAAUCCA	-0.561
CAGACAG	0.0398
UGGACUC	0.0138
CAUUAUG	-0.522

Sequence	RNAcompete 7-mer binding Z-score
UAGGAGA	1.94
UAGCCGA	-0.548
UGCCCUA	-0.759
UUGUCCA	-0.681
UGGGGUG	4.74
CCCUUAG	-0.717
CAAUCUC	-0.805
UCCUCUG	-0.516
AAGGCCC	-0.324
UAUCCGC	-0.756
UAAAAGA	-0.0252
CGUCAUC	-0.698
UUUGUUC	-0.613
AUUAUCA	-0.6
UAUGGUU	1.5
AGCACUU	-0.529
GUCAUCG	-0.152
AGAUAAG	0.949
UGUUUAG	-0.0155
GUUGCUU	-0.422
AUACGGG	1.97
GGCGUGC	0.738
GCUUACU	-0.675

Sequence	RNAcompete 7-mer binding Z-score
UAGACGC	-0.331
GACACAG	0.456
CAGCCUC	-0.733
AGGCGGA	1.33
GCGUUUA	-0.535
UAGCCGU	-0.561
AUGCGAA	0.00404
UGUGUGG	1.89
GACUCGC	-0.639
AAGUGCG	0.592
GGUCUGG	0.79
UAUCGUG	-0.0382
CAAUUGU	-0.714
AUGGAUG	3.28
GGGGUAG	4.61
GUACCUG	-0.529
UAAUGGU	0.8
AACGCUA	-0.435
CUCUCCG	-0.854
CAUCGUG	-0.0837
CGAAGUA	-0.0187
GAGCGCG	0.4
